Data as given in the RNAGym collection of RNA variant scans (doi:10.7554/elife.90254).
Read counts are not given, so values of variants with three or more changes are uncertain.

B1: OR4K15 (parent)
chain: GUUAACGGUCAUAGGCCAUGGAAACUAGGAGCACCAUUUCGCUGCCAGUGAAGAAAUGAACAAAGAAAAUCUGGGCCAGGCAGGCAUCAAAAGAAAUAGUCUUGCGCUCAACCAGAAAGUCUGUAAUCAUUUUAAGGGUA

Variants of: B1
Assay: self-cleavage, relative activity (ratio to wild type); higher = more cleavage; in vitro, sequencing; the parent is a self-cleaving ribozyme

| Variant | self-cleavage |
| --- | --- |
| GCUAACGGUCAUAGGCCAUGGAAACUAGGAGCACCAUUUCGCUGCCAGUGAAGAAAUGAACAAAGAAAAUCUGGGCCAGGCAGGCAUCAGAAGAAAUAGUCUUGCGCUCAACCAGAAAGUCUGAAAUCAUUUUAAGGGUA [U2C A90G U124A] | 0.12 |
| GCUAACGGUCAUAGGCCAUGGAAACUAGGAGCACCAUUUCGCUGCCAGUAAAGAAAUGAACAAAGAAAAUCUGGGCCAGGCGGGCAUCAAAAGAAAUAGUCUUGCGCUUAACCAGAAAGUCUGUAAUCAUUUUAAGGGUA [U2C G50A A82G C109U] | 0.32 |
| GCUAACGGUCAUAGGCCAUGGAAACUAGGAGCACCAUUUCGCUGCCAGUGAAGAAAUGAACAAAGAAAAUCUGGGCCGGGCAGGCAUCAAAAGAAAUAGUCUUGCGCUCAACCAGAAAGUCUGUAAUCUUUUUAAGGGUA [U2C A78G A129U] | 0.07 |
| GCAAGCGGUCAUAGGCCAUGGAAACUAGGAGCACCAUUUCGCUGCCAGUGAAGAUAUGAACAAAGAAAAUCUGGGCCAGGCAGGCAUCAAAAGAAAUAGUCUUGCGCUCAACCAGAAAGUCUGUAAUCAUUUUAAGGGUA [U2C U3A A5G A55U] | 0.56 |
| GCUAACGGUCAUAGGCCAUGGAAACUAGGAGCACCAUUUCGCUGCCAGUGAAGAAAUGAACAAAGAAAAUCUGGCCCAGGCAGGCAUCAAAAGAAACAGUCUUGCGCUCAACCAGAAAGUCUGUAAUCAUUUUAAGGGUA [U2C G75C U97C] | 0.08 |
| GCUAACGGUCAUAGGCCAUGGAAACUAGGAGCACCAUUUCGCUGCCAGUGAAGAAAUGAACAAAGAAAAUCUGGGCCAGGCAGGCAUCAAAGGAAAUAGCCUUGCGCUCAACCAGAAAGUCUGUAAUCAUUUUAAGGGUA [U2C A92G U100C] | 1.29 |
| GCUAACGGUCAUAGGCCAUGGAAACUAGGAGCACCAUUUCGCUGCCAGUGAAGAAAUGAACAAAGAAAAUCUGGGCCAGGCAGGCAUCAAAAGAAAUAGUCUUGCGCUCAACCUGAAAGUCUGUAAUCAUUCUAAGGGUA [U2C A114U U132C] | 0.01 |
| GCUAACGGUCAUAGGCCAUGGAAACUAGGAGCACCAUUUCGCUGCCAGUGAAGAAAUGAACAAAGAAAAUAUGGGCCAGGCGGGCAUCAAAAGAAAUAGUCUUGCGCUCAACCUGAAAGUCUGUAAUCAUUUUAAGGGUA [U2C C71A A82G A114U] | 0.05 |
| GCUAACGGUCAUAGACCACGGAGACUAGGAGCACCAUUUCGCUGCCAGCGAAGAAAUGAACAAAGAAAAUCUGGGCCAGGCAGGCACCAAAAGAAAUAGUCUUGCGCUCAACCAGAAAGUCUGUAAUCAUUUUAAGGGUA [U2C G15A U19C A23G U49C U87C] | 0.72 |
| GCUAACGGUCAUAGGCCAUGGAAACUAGGAGCACCAUUUCGCUGCCAGUGAAGAAAUGAACAAAGAAAAUCUGGGCCAGGCAGGCAUCAGAAGAAAUAGUCUUGCGCUCAGCCAGAAAGCCUGUAAUCAUUUUAAGGGUA [U2C A90G A111G U120C] | 0.02 |
| GCCAACGGUCAUAGGCCAUGGAAACUAGGAGCACCAUUUCGCUGCCAGUGAAGAAAUGAACAAGGAAAAUCUGGGCCAGGCAGGCAUCAAAAGAAAUAGUCUUGCGCUCAACCAGAAAGUCUGUAAUCAUUUUAAGGGUA [U2C U3C A64G] | 1 |
| GCAAACGGUCAUAGGCCAUGGAAACUAGGAGCACCGUUUCGCUGCCAGUGAAGAAAUGAACAAAGAAAAUCUGGGCCAGGCAGGCAUCAAAAGAAAUAGUCUUGCGCCCAACCAGAAAGUCUGUAACCAUUUUAAGGGUA [U2C U3A A36G U108C U127C] | 0.01 |
| GCUAACGGUCAUAGGCCAUGGAAACUAGGAGCACCAUUUCGCUGCCAGUGAAGAAAUGAACAAAGAAAAUCUGGGCCAGGCAGGCAUCAAAAGAGAUAGUCUUGCGCUCAACCAGAAAAUCUGUAAUCAUUUUAAGGGUA [U2C A95G G119A] | 1.45 |
| GCUAACGGUCAUAGGCCAUGGAAACUAAGAGCGCCAUUUCGCUGCCAGUGAAGAAAUGAACAAAGAAAAUCUGGGCCAGGCAGGCGUCAAAAGAAAUAGUCUUGCGCUCAACCAGAAGGUCUGUGAUCAUUUUAAGGGUA [U2C G28A A33G A86G A118G A125G] | 0.04 |
| GCUAACGGUCAUAGGCCAUGGAAACUAGAAGCACCAUUUCGCUGCCAGUGAAGAAAUGAACAAAGAAGAUCUGGGCCAGGCAGGCAUCAAAAGAAAUAGUCUUGCGCUCAACCAGAAAGUCUGUAAUCAUUAUAAGGGUA [U2C G29A A68G U132A] | 0.83 |
| GCUAACAGUCAUAGGCCUUGGAAACUAGGAGCACCAUUUCGCUGCCAGUGAAGAAAUGAACAAAGAAAAUCUGGGCCAGGCAGGCAUCAAAAGUAAUAGUCUUGCGCUCAACCAGAAAGUCUGUAAUCAUUUUAAGGGUA [U2C G7A A18U A94U] | 1.14 |
| GCUAACGGUCAUAGGCCAUGGAAACUAGGAGCACCAUUUCGCUGCCAGUGAAGAAAUGAACAAAGAAAAUCUGGGCCUGGCAGGCAUCAAAAGAAAUAGUCCUGCGCUCAACCAGAAAGUCUGUAAUCAUUUUAAGGGUA [U2C A78U U102C] | 0.64 |
| GCUAACGGUCAUAGGCCAUGGAAACUAGGAGCACCAUUUCGCUGCCAGUGAAGAAAUGAAUAAAGAAAAUCUGGGCCAGGCAGGCAUCAAAAGAAAUAGUCUUGCGCUCAACCAGAAAGUCUGUAAUCACUUUAAGGGUA [U2C C61U U130C] | 0.14 |
| GCUAACGGUCAUAGGCCAUGGAAACUAGGAGCACCAUUUCGCUGCCAGUGAAGAAAUGAACAAAGAAAAUCUGGGCCAGGCAGCCAUCAAAAGAAAUAGCCUUGCGCUCAACCAGAAAGUCUGUAAUCAUUUUAGGGGUA [U2C G84C U100C A135G] | 0 |
| GCUAACGGUCAUAGGCCAUGGAAACUAGGAGCACCAUUUCGCUGCCAGUGAAGAAAUGAACAAAGAAAAUCUGGGCCGGGCUGGCAUCAAAAGAAAUAGUCUUGCGCUCAACCAGAAAGUCUGUAAUCAUUUUAAGGGUA [U2C A78G A82U] | 0.17 |
| GCUAACGGUCAUAGGCCAUGGAAACUAGGAGCACCAUUUUGCUGCCAGUGAAGAAAUGAACAAAGAGAAUCUGGGCCAGGCAGGCAUCAAAUGAAAUAGUCUUGCGCUCAGCCAGAGAGUCUGUAAUCAUUUCAAGGGUA [U2C C40U A67G A92U A111G A117G U133C] | 0 |

| Variant | self-cleavage |
| --- | --- |
| GCUAACGGUCAUAGGCCAUGGAAACUAGGAGCACCAUUUCGUUGCCAGUGAAGAAAUGAACAAAGAAGAUCUGGGCCAGGCAGGCAUCAAAAGAAAUAGUCUUGCGCUCAACCAGAAAGUCUGUAAUCAUUUUAAGGGUA [U2C C42U A68G] | 1.18 |
| GCUAACGGUCAUAGGCCAUGGAAACUAGGAGCACCAUUUCGCUGCCAGUGAAGAAAUGAACAAAGAAAAUCUGGGCCAGGCAGGCAUCAAAAGAAAUGGUCUUGCGCCCAACCAGAAAGUCUGUAGUCAUUUUAAGGGUA [U2C A98G U108C A126G] | 0 |
| GCCAACGGUCAUAGGCCAUGGAAACUAGGAGCACCAUUUCGCUGCCAGUGAAGAGAUGAACAAAGAAAAUCUGGGCCAGGCAGGCAUCAAAAGAGAUGGUCUUGCGCUCAACCAGAAAGUCUGUAAUCAUUUUAAGGGUA [U2C U3C A55G A95G A98G] | 0.89 |
| GCUAACGGUCAUAGGCCAUGGAAACUAGGAGCACCAUUUCGCUGCCAGUGAAGAAAUGAACAAAGAAAAUCUGGGCCAGGCAGGCAUCAAAAGAAAUAGUCUUGCGCUCAACCAGAGGGUCUGUAAUCAUUUUAAGGGUA [U2C A117G A118G] | 0.46 |
| GCUAACGGUCAUACGCCAUGGAAACUAGGAGCACCAUCUCGCUGCCAGUGAAGAAAUGAACGAAGAAAACCUGGGCCAGGCAGCCAUCAAAAGAAAUAGUCUUGCGCUCAACCAGAAAGUCUGUAAUCAUUUUAAGGGUA [U2C G14C U38C A62G U70C G84C] | 0.05 |
| GCUAACGGUUAUAGGCCAUGGAAGCUAGGAGCACCAUUUCGCUGCCAGUGAAGAAAUGAACAAAGAAAAUCUGGGCCAGGCAGGCAUCAAAAGAAAUAGUCUUGCGCUCAACCAGAAAGUCCGUAAUCGUUUUAAGGGUA [U2C C10U A24G U122C A129G] | 0.58 |
| GCUAACGGUCAUAGGCCAUGGAAAUUAGGAGCACCAUUUCGCUGCCAGUGAAGAAAUGAACAAAGAAAAUCUGGGCCAGGCAGGCAUCAAAAGAAAUAGUCUUGCGCUCAACCAGAAAGCCUGUCAUCAUUUUAAGGGUA [U2C C25U U120C A125C] | 0.35 |
| GCUAACGGUCAUAGGCCAUGGAAACUAGGAGCACCAUUUCGCUGCCAGUGAAGAAAUGAACAAAGAAAAUCUGGGCCAGGCAGGCAUCAGAAGAAGUAGUCUUGCGCUCAACCAGAAAGUCUGUAAUCAUUUUAUGGGUA [U2C A90G A96G A135U] | 0.86 |
| GCUAACGGUCAUAGGCCAUGGAAACUAGGAGCACCAUUUCGCUGCCAGUGAAGAAAUGAACAAAGAAAAUCUGGGCCUGGCAGGCAUCAAAAGAGAUAGUCUUGCGCUCAACCAGAAAGUCUGUAAUCGUUUUAAGGGUA [U2C A78U A95G A129G] | 0.44 |
| GCUAACGGUCAUAGGCCAUGGAAACUAGGAGCACCAUUUCGCUGCCAGUGAAGAAAUGAACAAAGAAAAUCUGGGCCAGGCAGGCAUCAAGAGAAAUAGUCUUGCGCUCAGCCAGAAAGUCUGUAAUCAUUUUAAGGGUA [U2C A91G A111G] | 0.14 |
| GCUAACGGUCAUAGGCCAUGGAAACUAGGAGCACCAUUUCGCUGCCAGUGAAGAAAUGAACAAAGAAAAUCUGGGCCAGGCAGGCAUCCAGAGAAAUAGUCUUGCGCUCAACCAGAAAGUCUGUAAUCAUUUUAUGGGUA [U2C A89C A91G A135U] | 0.52 |
| GCUAACGGUCAUAGGCCAUGGAAACUAGGAGCACCAUUUCGCUGUCAGUGAAGAAAUGAACAAAGAAAAUCUGGGCCAGGCAGGCAUCAAAAGAAAUAGUCUUGCGCUCAACCAGAAAGUCUGUAAUCAUUUCAAGGGUA [U2C C45U U133C] | 1.12 |
| GCUAACGGUCAUAGGCCAUGGAAACUAGGAGCACCAUUUCGCUGCCAGUGAAGAAAUGAACAAAGAAAAUCUGGGCCUGGCAGGCAUCAAAAGUAAUAGUCUUGCGCUCAACCAGAAAGUCUGUAAUCAUUUUAAGGGUA [U2C A78U A94U] | 0.66 |
| GCUAACGGUCAUAGGCCAUGGAAACUAGGAGCACCAUUUCGCUGCCAGUGAAGAAAUGAACAAAGAAAAUCUGGGCCAGGCAGGCAUCAGAAGAAAUAGUCUUGCGCUCACCCAGAAAGUCUGUAAUCGUUUUAAGGGUA [U2C A90G A111C A129G] | 0.03 |
| GCUAACGGUCAUAGGCCAUGGAAACUAGGAGCACCAUUUCGCUGCCAGUGAAGAAAUGAACAAAGAAAAUCUGGGCCAGGCAGGGAUCAAAAGAAAUAGUCUUGCGCUCAACCAGAAAGUCCGUAAUCAUUUUAAGGGUA [U2C C85G U122C] | 0.82 |
| GCCAACGGUCAUAGGCCAUGGAAACUAGGGGCACCAUUUCGCUACCAGUGAAGAAAUGAACAAAGAAAAUCUGGGCCAGGCGGGCAUCAAAAGAAAUAGUCUUGCGCUCAACCAGAAAGUCUGUAAUCAUUUUAAGGGUA [U2C U3C A30G G44A A82G] | 0.81 |
| GCUAACAGUCAUAGGCCAUGGAAACUAGGAGCACCAUUCCGCUGCCAGUGAAGAAAUGAACAAAGAAAAUCUGGGCCAGGCAGGCAUCAAAAGAAAUAGUCUUGCGCUCAACCAGAAAGUCUGUAAUCAUUUUAAGGGUA [U2C G7A U39C] | 0.54 |
| GCUAACGGUCAUAGGCCAUGGAAACUAGGAGCACCAUUUCGCUGCCAGUGAAGAAAUGAACAAAGAAAAUCUGGGCCAGGCAGGCAUCAAAAGAAAUAGUCUUGCGCUCAACCCGAAAGUCUGUAACCAUUUUAAGGGUA [U2C A114C U127C] | 0.04 |
| GCCAACGGUCAUAGGCCCUGGAAACUAGGAGCACCAUUUCGCUGCCAGUGAAGGAAUGAGCAAAGAAAAUCUGGGCCAGGCGGGCGUCAGAAGAAAUAGUCUUGCGCUCAACCAGAAAGUCUGUAAUCAUUUUAAGGGUA [U2C U3C A18C A54G A60G A82G A86G A90G] | 0.12 |
| GCUAACGGUCAUAGGCCAUGGAAACUAGGAGCACCAUUUCGCUGCCAGUGAAGAAAUGAACAAAGAAAAUCUGGGCCAGGCAGGAAUCAAAAGAAAUAGUCUUGCGCUCAACCAGACAGUCUGUAAUCAUUUUAAGGGUA [U2C C85A A117C] | 0.48 |
